Results reported in publication PMC4336329 (PLoS ONE, 2015).
The whole screen tested about 310,000 compounds, of which about 14,000 (4.5%) showed an effect of 50% or more. Effects have a minus sign here. This is one part of the list.

target: human ether-à-go-go-related gene (hERG) potassium channel (human, UniProt Q12809); assay: primary screen, population patch clamp on CHO cells stably expressing hERG
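Also: peak tail current of the secondary pulse compared with the same well before compound.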

Sequence of human ether-à-go-go-related gene (hERG) potassium channel (Q12809 whole entry, looked up): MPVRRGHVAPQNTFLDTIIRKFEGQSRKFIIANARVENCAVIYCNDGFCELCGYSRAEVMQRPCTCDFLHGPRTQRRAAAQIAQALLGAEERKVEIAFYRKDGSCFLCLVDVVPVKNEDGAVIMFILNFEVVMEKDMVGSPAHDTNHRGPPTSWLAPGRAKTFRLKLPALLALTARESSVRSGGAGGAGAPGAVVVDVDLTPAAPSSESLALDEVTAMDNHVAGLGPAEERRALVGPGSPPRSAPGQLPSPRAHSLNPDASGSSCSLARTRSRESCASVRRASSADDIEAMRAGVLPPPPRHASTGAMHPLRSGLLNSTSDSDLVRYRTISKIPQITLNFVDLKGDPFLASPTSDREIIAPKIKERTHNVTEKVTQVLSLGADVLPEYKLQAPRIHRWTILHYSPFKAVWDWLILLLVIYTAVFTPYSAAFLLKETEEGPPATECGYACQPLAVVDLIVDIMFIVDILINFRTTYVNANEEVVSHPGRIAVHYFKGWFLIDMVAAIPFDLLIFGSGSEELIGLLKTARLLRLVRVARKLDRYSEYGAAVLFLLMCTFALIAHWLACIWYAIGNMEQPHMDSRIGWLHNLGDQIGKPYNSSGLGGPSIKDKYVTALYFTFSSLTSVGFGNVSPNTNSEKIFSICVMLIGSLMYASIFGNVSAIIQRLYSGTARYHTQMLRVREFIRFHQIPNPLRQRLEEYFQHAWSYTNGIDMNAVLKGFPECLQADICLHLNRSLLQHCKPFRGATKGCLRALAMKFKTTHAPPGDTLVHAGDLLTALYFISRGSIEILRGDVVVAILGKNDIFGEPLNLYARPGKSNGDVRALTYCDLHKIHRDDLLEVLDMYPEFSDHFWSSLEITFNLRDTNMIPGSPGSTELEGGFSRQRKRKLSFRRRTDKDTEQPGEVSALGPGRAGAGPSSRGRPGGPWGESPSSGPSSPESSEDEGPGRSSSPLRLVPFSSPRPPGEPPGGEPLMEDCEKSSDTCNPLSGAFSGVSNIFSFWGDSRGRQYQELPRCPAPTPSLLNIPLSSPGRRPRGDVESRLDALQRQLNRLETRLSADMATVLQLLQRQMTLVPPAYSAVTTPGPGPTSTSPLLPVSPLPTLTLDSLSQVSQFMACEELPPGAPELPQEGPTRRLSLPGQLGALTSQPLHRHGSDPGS

| Structure (SMILES) | hERG current change (%, negative = inhibition) at 10uM [%] |
| --- | --- |
| O=C(Cn1cccc1C(=O)c1ccccc1)NCCN1CCOCC1 | -2.26 |
| CCCCOc1ccc(OCCNS(=O)(=O)N(C)C)cc1 | -16.9 |
| Cc1onc(-c2c(F)cccc2Cl)c1C(=O)Nc1ccc(Cl)c(S(=O)(=O)N(C)C)c1 | 11.7 |
| OC(Cc1ccncc1)(c1ccccc1)c1ccccc1 | -5.91 |
| COc1ccc(C2C(C(N)=O)=C(C)Nc3nc(CCCO)nn32)cc1OC (centres unmarked) | 18.8 |
| CCN(CC)C(=O)C(=O)Nc1ccc(OCc2ccccc2)cc1 | 3.57 |
| Cc1sc2nc(CSCC(=O)Nc3ccc(N4CCOCC4)cc3)[nH]c(=O)c2c1C | -9.94 |
| COc1ccc(C(=O)O)cc1NC(=S)NC(=O)C(c1ccccc1)c1ccccc1 | 11.9 |
| COc1ccccc1-n1cc(CN2CCCC(CO)(Cc3cccc(Cl)c3)C2)cn1 (centres unmarked) | -49.5 |
| COc1ccc(NC(=O)c2c(Cl)nc3ccccn23)cc1 | -7.94 |
| Cc1cccc(N(C)S(=O)(=O)c2ccc3[nH]c(=O)c(=O)[nH]c3c2)c1 | 8.14 |
| Cc1ccccc1OCC(=O)Nc1nc(-c2ccncc2)cs1 | 0.61 |
| COc1ccc(S(=O)(=O)Nc2cccc(NC(C)=O)c2)cc1 | -6.58 |
| O=C(Nc1ccncc1)C1CCCN(S(=O)(=O)c2cccc3cccnc23)C1 (centres unmarked) | -15 |
| CC1CCC(=NNC(=O)Cc2ccccc2)CC1 (centres unmarked) | 10.9 |
| Cc1ccc(S(=O)(=O)N2CCOCC2)cc1NC(=O)C1CC(=O)N(c2ccc3c(c2)OCCO3)C1 (centres unmarked) | 16.5 |
| O=C(NCc1ccco1)C1CC(=O)N(c2ccc(F)cc2)C1 (centres unmarked) | -21.4 |
| COc1ccc(-c2nc3cc(NC(=O)Cc4ccc(OC)c(OC)c4)ccc3o2)cc1 | -2.92 |
| Cc1ccc(-c2cc3ccccc3nc2N2CCOCC2)cc1 | 10.2 |
| COc1ccc(CNC(=O)C2CCCN2C(=O)NC2CCCCC2)cc1 (centres unmarked) | -16.2 |
| NS(=O)(=O)c1cccc(NC(=O)COC(=O)COc2ccc3ccccc3c2)c1 | 5.27 |
| COc1ccc(OC)c(C2=Nn3c(nnc3-c3cc(C)[nH]n3)SC2)c1 | -19.7 |

| Structure (SMILES) | hERG current change (%, negative = inhibition) at 10uM [%] |
| --- | --- |
| OCC[C@@H]1C[C@@H](O)[C@H](O)[C@@]2(OCCc3ccccc32)O1 | 21.9 |
| Cc1ccc(CNC(=O)COC(=O)CSc2ccc(Br)cc2C)cc1 | 10.9 |
| COc1cccc(N2C(=O)C(CC(=O)Nc3ccc(F)cc3)N(C3CCCCC3)C2=O)c1 (centres unmarked) | -7.12 |
| Cc1ccc(S(=O)(=O)N(C)C)cc1[N+](=O)[O-] | -4.14 |
| Cc1ccc(C(=O)Nc2cc(Cl)ccc2Oc2ccccc2)cc1[N+](=O)[O-] | 20.3 |
| CCCc1cc(=O)[nH]c(SCC(=O)N(CCOC)c2c(N)n(Cc3ccccc3)c(=O)[nH]c2=O)n1 | -6.63 |
| CCOC(=O)c1cnc(SCc2ccc(C)cc2)nc1N | -0.61 |
| Cc1cc(C)c[n+](-c2[nH]c(=O)sc2/C=N/NC([S-])=Nc2ccccc2)c1 | 19.1 |
| O=C(O)CCc1ccc(-c2ccc(Br)cc2)n1-c1ccc(O)cc1 | 6.94 |
| CCCC[C@@H]1C[C@H]1[C@@H](NC(=O)c1ccco1)c1ccc(Cl)cc1 | -50.2 |
| CCOC(=O)c1sc(NCC2CCCO2)nc1C (centres unmarked) | 9.92 |
| COc1ccc(/C=N/NC(=O)CC(=O)NCCc2ccccc2)cc1OC | 3.66 |
| Cc1c(Cl)cccc1NC(=O)Nc1cc(C(C)(C)C)nn1C | 11.7 |
| CCOc1cc2c3c(c1)C1(OCCO1)C(=O)N3C(C)(C)CC2C (centres unmarked) | -5.16 |
| COc1cc(/C=C2/SC(=S)N(CC(=O)O)C2=O)ccc1OCC(=O)Nc1ccc(C)c(C)c1 | -6.69 |
| C[C@@H]1CN(Cc2nc(-c3cccs3)no2)C[C@H](C)O1 | 3.96 |
| COc1ccc(NC(=O)Nc2ccncc2)c(OC)c1 | 17 |
| CCN(CCO)C(=O)C(c1ccccc1)c1ccccc1 | 14.8 |
| O=[N+]([O-])c1ccc(SCCO)nc1SCCO | -1.63 |
| Clc1cc(Cl)cc(Nc2ncnc(-n3cccc3)n2)c1 | 9.8 |
| O=C(CSc1ccc(Cl)cc1)N1CCOCC1 | -6.37 |
| CCC(C)(C)c1ccc(OCCN2C(=O)NC(C)(C)C2=O)cc1 | 0.378 |
